From the supplement of paper PMC4967469
The IC50 comes from the fitted curve, where viability falls to half of the control; a limit (>, <) means that the fit lies beyond the doses tested. AUC sums up the same curve from the lowest dose to the 256-fold higher top dose: 1 means no effect, lower means more sensitive. Any top dose called inferred was calculated from the reported fits.

Key:
Assay in all cases: Viability of human cancer cell lines after 72 h of drug (GDSC screen)
[1] = compound: CCc1cc2c(cc1N1CCC(N3CCOCC3)CC1)C(C)(C)c1[nH]c3cc(C#N)ccc3c1C2=O [CH5424802]; conditions: top dose 5.12 µM; top dose inferred
Method: (§1)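 Human cancer cell lines in 384-well plates, medium with 10% serum, drug for 72 h over a 256-fold dose range (nine 2-fold or five 4-fold steps up to the top dose). Adherent lines were fixed and stained with the nucleic acid dye Syto60, suspension lines read with resazurin; signal relative to control wells, capped at 0 and 100%. One two-parameter sigmoid per drug and line, fitted in a mixed model over all curves with the slope shared within a line.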

[2] = compound: N#Cc1c(C2CCNCC2)cc(-c2c(O)cccc2OCC2CC2)nc1N [ACHP (KIN001-260)]; conditions: top dose 20 µM; top dose inferred
Method: as §1

[3] = compound: CC(C)(C)OC(=O)Nc1ccc(-c2cc(C(=O)NCCCCCCC(=O)NO)no2)cc1 [CAY10603]; conditions: top dose 20 µM; top dose inferred
Method: as §1

[4] = compound: CCOc1cc(N2CCC(O)CC2)ccc1Nc1ncc2c(n1)N(C)c1ccccc1C(=O)N2C [XMD8-92]; conditions: top dose 10 µM; top dose inferred
Method: as §1

SNB75 (glioma, adherent) gave an AUC [1] of 0.972, an IC50 [1] greater than 5.12 µM and an AUC [2] of 0.976. For the same cell line, the IC50 [2] was greater than 20 µM, the AUC [3] was 0.648 and the IC50 [3] was 3.89 µM. The AUC [4] was 0.834 and the IC50 [4] was greater than 10 µM.

Work on “EPLC-272H (lung squamous cell carcinoma, adherent)” yielded an AUC [1] of 0.851, an IC50 [1] of 4.75 µM and an AUC [2] of 0.926. For the same cell line, the IC50 [2] was greater than 20 µM, the AUC [3] was 0.354 and the IC50 [3] was 0.466 µM. It also gave an AUC [4] of 0.823 and an IC50 [4] of 6.95 µM.

For PC-14 (lung adenocarcinoma, adherent), the AUC [1] was 0.85, the IC50 [1] was 3.25 µM and the AUC [2] was 0.931. For the same cell line, the IC50 [2] was greater than 20 µM, the AUC [3] was 0.543 and the IC50 [3] was 1.62 µM. It also gave an AUC [4] of 0.946 and an IC50 [4] greater than 10 µM.

MES-SA (uterus, adherent) showed an AUC [1] of 0.992, an IC50 [1] greater than 5.12 µM and an AUC [2] of 0.991. For the same cell line, the IC50 [2] was greater than 20 µM, the AUC [3] was 0.992 and the IC50 [3] was greater than 20 µM. The AUC [4] was 0.931 and the IC50 [4] was greater than 10 µM.

In the case of OV-56 (ovary, adherent), the AUC [1] is reported as 0.892, the IC50 [1] is reported as greater than 5.12 µM and the AUC [2] is reported as 0.926. For the same cell line, the IC50 [2] was greater than 20 µM, the AUC [3] was 0.618 and the IC50 [3] was 2.6 µM. It also gave an AUC [4] of 0.956 and an IC50 [4] greater than 10 µM.

For KINGS-1 (glioma, adherent), the AUC [1] was 0.979, the IC50 [1] was greater than 5.12 µM and the AUC [2] was 0.968. The IC50 [2] was greater than 20 µM, the AUC [3] was 0.468 and the IC50 [3] was 0.992 µM. It also gave an AUC [4] of 0.969 and an IC50 [4] greater than 10 µM.

For HSC-4 (head and neck, adherent), the AUC [1] was 0.978, the IC50 [1] was greater than 5.12 µM and the AUC [2] was 0.979. For the same cell line, the IC50 [2] was greater than 20 µM, the AUC [3] was 0.711 and the IC50 [3] was 6.11 µM. The AUC [4] was 0.796 and the IC50 [4] was 6.57 µM.

For “IA-LM (large cell lung carcinoma, adherent)”, the AUC [1] was 0.983, the IC50 [1] was greater than 5.12 µM and the AUC [2] was 0.972. For the same cell line, the IC50 [2] was greater than 20 µM, the AUC [3] was 0.805 and the IC50 [3] was 11.6 µM. For the same cell line, the AUC [4] was 0.853 and the IC50 [4] was 9.36 µM.

In the case of “HARA (lung squamous cell carcinoma, adherent)”, the AUC [1] is reported as 0.921, the IC50 [1] is reported as greater than 5.12 µM and the AUC [2] is reported as 0.943. For the same cell line, the IC50 [2] was greater than 20 µM, the AUC [3] was 0.629 and the IC50 [3] was 3.02 µM. It also gave an AUC [4] of 0.881 and an IC50 [4] greater than 10 µM.

For OC-314 (ovary, adherent), the AUC [1] was 0.991, the IC50 [1] was greater than 5.12 µM and the AUC [2] was 0.919. The IC50 [2] was greater than 20 µM, the AUC [3] was 0.578 and the IC50 [3] was 1.97 µM. It also gave an AUC [4] of 0.802 and an IC50 [4] of 4.11 µM.

EC-GI-10 (oesophagus, adherent) gave an AUC [1] of 0.989, an IC50 [1] greater than 5.12 µM and an AUC [2] of 0.988. It also gave an IC50 [2] greater than 20 µM, an AUC [3] of 0.982 and an IC50 [3] greater than 20 µM. It also gave an AUC [4] of 0.926 and an IC50 [4] greater than 10 µM.

Work on D-247MG (glioma, adherent) yielded an AUC [1] of 0.963, an IC50 [1] greater than 5.12 µM and an AUC [2] of 0.979. For the same cell line, the IC50 [2] was greater than 20 µM, the AUC [3] was 0.517 and the IC50 [3] was 1.42 µM. The AUC [4] was 0.919 and the IC50 [4] was greater than 10 µM.

“NCI-H2291 (lung adenocarcinoma, adherent)” was tested, and the AUC [1] was 0.983, the IC50 [1] was greater than 5.12 µM and the AUC [2] was 0.972. For the same cell line, the IC50 [2] was greater than 20 µM, the AUC [3] was 0.976 and the IC50 [3] was greater than 20 µM. It also gave an AUC [4] of 0.975 and an IC50 [4] greater than 10 µM.

IHH-4 (thyroid, semi-adherent) gave an AUC [1] of 0.993, an IC50 [1] greater than 5.12 µM and an AUC [2] of 0.992. The IC50 [2] was greater than 20 µM, the AUC [3] was 0.518 and the IC50 [3] was 1.38 µM. For the same cell line, the AUC [4] was 0.895 and the IC50 [4] was 7.91 µM.

A101D (melanoma, adherent) showed an AUC [1] of 0.981, an IC50 [1] greater than 5.12 µM and an AUC [2] of 0.939. For the same cell line, the IC50 [2] was greater than 20 µM, the AUC [3] was 0.566 and the IC50 [3] was 1.98 µM. The AUC [4] was 0.769 and the IC50 [4] was 4.65 µM.

In the case of HUTU-80 (digestive system, adherent), the AUC [1] is reported as 0.991, the IC50 [1] is reported as greater than 5.12 µM and the AUC [2] is reported as 0.973. It also gave an IC50 [2] greater than 20 µM, an AUC [3] of 0.386 and an IC50 [3] of 0.643 µM. The AUC [4] was 0.982 and the IC50 [4] was greater than 10 µM.

With VMRC-MELG (melanoma, adherent) the AUC [1] was 0.988, the IC50 [1] was greater than 5.12 µM and the AUC [2] was 0.951. It also gave an IC50 [2] greater than 20 µM, an AUC [3] of 0.605 and an IC50 [3] of 2.46 µM. For the same cell line, the AUC [4] was 0.933 and the IC50 [4] was greater than 10 µM.

With FADU (head and neck, adherent) the AUC [1] was 0.982, the IC50 [1] was greater than 5.12 µM and the AUC [2] was 0.988. For the same cell line, the IC50 [2] was greater than 20 µM, the AUC [3] was 0.791 and the IC50 [3] was 8.61 µM. The AUC [4] was 0.874 and the IC50 [4] was 9.1 µM.

TOV-112D (ovary, adherent) showed an AUC [1] of 0.966, an IC50 [1] greater than 5.12 µM and an AUC [2] of 0.966. The IC50 [2] was greater than 20 µM, the AUC [3] was 0.481 and the IC50 [3] was 1.11 µM. It also gave an AUC [4] of 0.886 and an IC50 [4] greater than 10 µM.

EW-1 (Ewing sarcoma, semi-adherent) was tested, and the AUC [1] was 0.973, the IC50 [1] was greater than 5.12 µM and the AUC [2] was 0.851. The IC50 [2] was 13.4 µM, the AUC [3] was 0.292 and the IC50 [3] was 0.343 µM. The AUC [4] was 0.988 and the IC50 [4] was greater than 10 µM.

With HuP-T3 (pancreas, adherent) the AUC [1] was 0.971, the IC50 [1] was greater than 5.12 µM and the AUC [2] was 0.953. For the same cell line, the IC50 [2] was greater than 20 µM, the AUC [3] was 0.549 and the IC50 [3] was 1.75 µM. It also gave an AUC [4] of 0.93 and an IC50 [4] greater than 10 µM.

Work on WIL2-NS (lymphoid neoplasm, suspension) yielded an AUC [1] of 0.977, an IC50 [1] greater than 5.12 µM and an AUC [2] of 0.913. It also gave an IC50 [2] of 19.6 µM, an AUC [3] of 0.039 and an IC50 [3] of less than 0.0781 µM. The AUC [4] was 0.873 and the IC50 [4] was 6.69 µM.

OVISE (ovary, adherent) gave an AUC [1] of 0.958, an IC50 [1] greater than 5.12 µM and an AUC [2] of 0.952. The IC50 [2] was greater than 20 µM, the AUC [3] was 0.615 and the IC50 [3] was 2.87 µM. The AUC [4] was 0.952 and the IC50 [4] was greater than 10 µM.

H2591 (mesothelioma, adherent) was tested, and the AUC [1] was 0.978, the IC50 [1] was greater than 5.12 µM and the AUC [2] was 0.961. The IC50 [2] was greater than 20 µM, the AUC [3] was 0.715 and the IC50 [3] was 6.18 µM. For the same cell line, the AUC [4] was 0.904 and the IC50 [4] was greater than 10 µM.

Work on CHSA0108 (chondrosarcoma, adherent) yielded an AUC [1] of 0.976, an IC50 [1] greater than 5.12 µM and an AUC [2] of 0.885. For the same cell line, the IC50 [2] was greater than 20 µM, the AUC [3] was 0.444 and the IC50 [3] was 0.855 µM. The AUC [4] was 0.879 and the IC50 [4] was greater than 10 µM.

With SF268 (glioma, adherent) the AUC [1] was 0.971, the IC50 [1] was greater than 5.12 µM and the AUC [2] was 0.969. For the same cell line, the IC50 [2] was greater than 20 µM, the AUC [3] was 0.395 and the IC50 [3] was 0.629 µM. It also gave an AUC [4] of 0.918 and an IC50 [4] greater than 10 µM.

TE-9 (oesophagus, adherent) was tested, and the AUC [1] was 0.987, the IC50 [1] was greater than 5.12 µM and the AUC [2] was 0.984. It also gave an IC50 [2] greater than 20 µM, an AUC [3] of 0.987 and an IC50 [3] greater than 20 µM. The AUC [4] was 0.929 and the IC50 [4] was greater than 10 µM.

For IST-MES1 (mesothelioma, adherent), the AUC [1] was 0.986, the IC50 [1] was greater than 5.12 µM and the AUC [2] was 0.968. For the same cell line, the IC50 [2] was greater than 20 µM, the AUC [3] was 0.587 and the IC50 [3] was 2.17 µM. It also gave an AUC [4] of 0.779 and an IC50 [4] of 4.12 µM.

In the case of “NCI-H82 (small cell lung carcinoma, suspension)”, the AUC [1] is reported as 0.989, the IC50 [1] is reported as greater than 5.12 µM and the AUC [2] is reported as 0.983. It also gave an IC50 [2] greater than 20 µM, an AUC [3] of 0.542 and an IC50 [3] of 1.62 µM. It also gave an AUC [4] of 0.969 and an IC50 [4] greater than 10 µM.

Cell Line NB7 (neuroblastoma, adherent) has an AUC [1] of 0.985, an IC50 [1] greater than 5.12 µM and an AUC [2] of 0.978. The IC50 [2] was greater than 20 µM, the AUC [3] was 0.509 and the IC50 [3] was 1.32 µM. For the same cell line, the AUC [4] was 0.985 and the IC50 [4] was greater than 10 µM.

In the case of Becker (glioma, adherent), the AUC [1] is reported as 0.978, the IC50 [1] is reported as greater than 5.12 µM and the AUC [2] is reported as 0.959. The IC50 [2] was greater than 20 µM, the AUC [3] was 0.629 and the IC50 [3] was 2.96 µM. For the same cell line, the AUC [4] was 0.919 and the IC50 [4] was greater than 10 µM.
